Results on one substance are retold here after patent US20230407304A1, “USE OF MICRORNA INHIBITION TO PREVENT AND TREAT OSTEOARTHRITIS AND OTHER INFLAMMATORY DISEASES” (VIRGINIA COMMONWEALTH UNIVERSITY, priority 2020, published 2023).

The subject of the data set is resting zone and growth zone chondrocytes. Put plainly: microRNA transfection of costochondral resting zone and growth zone chondrocytes. The note with it: transfected costochondral resting zone and growth zone chondrocytes; preliminary testing.

Consider “miR-122: mirVana miRNA mimic rno-miR-122-5p; UGGAGUGUGACAAUGGUGUUUG (UGGAGUGUGACAAUGGUGUUUG; listed as RNA, chemistry not given here)”, for which the proliferation result is “increase in proliferation in both the resting zone and growth zone chondrocytes”.
